Laboratory results as given in PubChem BioAssay (NCATS).
“And” between values parts separate entries of the source, which are not always exact repeats. Equal entries are not always repeated. Inconclusive means that the source gave no clear call. Such entries were picked first, then a sample of the others. For some of these results: Potencies of inconclusive entries are doubtful fits and often do not repeat. A structure can be active in one record and inactive in another. The source made the active and inactive calls. Calls follow the shape of the dose curve; as a rule, active = well fitted curve in the direction sought with a large enough effect; inconclusive = small, poorly fitted or top-dose-only effect, or another doubt; inactive = no such curve, though single readings can be large; an effect the other way counts as inactive or inconclusive.

Legend:
[1] = P-glycoprotein substrates identified in KB-8-5-11 adenocarcinoma cell line, qHTS therapeutic library screen (AID 1346987); also: nearly all actives have a fitted effect of over 65% in size
Method in brief: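 KB-8-5-11, a colchicine-selected P-gp-overexpressing KB-3-1 subline, was grown without colchicine for the assay. Cells were seeded at 500 cells/well, dosed in concentration-response and incubated 72 h at 37 degree C, 5% CO2. Viability was read by CellTiter-Glo luminescence.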

[2] = test system: Zika virus NS2B-NS3 protease (unlinked complex); assay: Primary screen GU Rhodamine qHTS for Zika virus inhibitors: Unlinked NS2B-NS3 protease assay (AID 1347159); also: nearly all actives have a fitted effect of over 60% in size
Method in brief: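 Noncovalent NS2B hydrophilic domain/NS3 protease complex (25 nM final) in 10 mM Tris-HCl pH 8.0, 0.01% Tween 20, preincubated 15 min with compounds (up to 114 microM), then 1.5 microM Rhodamine110 substrate. Fluorescence change over 15 min fitted to 4-parameter Hill.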

[3] = Primary qHTS for inhibitors of nuclear receptor binding SET domain protein 2 (NSD2) in an isogenic RCH-ACV NSD2 p.E1099K mutant (9B) (AID 1645876); also: nearly all actives have a fitted effect of over 70% in size
[4] = Primary qHTS for inhibitors of nuclear receptor binding SET domain protein 2 (NSD2) in an RCH-ACV wild type WT cells (2C) (AID 1645877); conditions: activity change, negative = cell killing: at 44.9 µM (top of the series) unless noted; also: nearly all actives have a fitted effect of over 70% in size
CRL-7250 = normal cell line; assay: Cytotoxic Profiling of Annotated Libraries Using Quantitative High-Throughput Screening (AID 1296008); conditions: Five cell lines viability, CellTiter-Glo ATP luminescence, 48-72 h; max response: stronger effect = lower value; also: nearly all actives have a fitted effect of over 60% in size
Method in brief: (§1)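 Compounds were pin-transferred onto cells and incubated 48 or 72 hr at 37 degree Celsius, 95% humidity. CellTiter-Glo was added, plates sat 10 min at room temperature, then ATP-coupled luminescence was imaged as the viability read-out.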

HaCat = assay: as above; conditions: Five cell lines viability, CellTiter-Glo ATP luminescence, 48-72 h; max response: stronger effect = lower value
Method in brief: as §1

KB-3-1 = assay: as above; conditions: Five cell lines viability, CellTiter-Glo ATP luminescence, 48-72 h; max response: stronger effect = lower value
Method in brief: as §1

NIH3T3 = assay: as above; conditions: Five cell lines viability, CellTiter-Glo ATP luminescence, 48-72 h; max response: stronger effect = lower value
Method in brief: as §1

C33A = assay: Primary qHTS to identify gynecologic anti-cancer compounds using libraries of approved drugs and bioactive compounds (AID 1345084); conditions: Gynecologic cancer cell panel viability, ATPlite luminescence, 48 h; series mostly up to 57.5 µM; also: nearly all actives have a fitted effect of over 55% in size
Method in brief: (§2)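 Five-concentration response, 48 h; readout is ATP-driven luciferase luminescence.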

CAOV3 = assay: as above; conditions: Gynecologic cancer cell panel viability, ATPlite luminescence, 48 h; activity change, negative = cytotoxicity: at 57.5 µM (top of the series)
Method in brief: as §2

CASKI = assay: as above; conditions: Gynecologic cancer cell panel viability, ATPlite luminescence, 48 h; series mostly up to 57.5 µM
Method in brief: as §2

Es-2 = assay: as above; conditions: Gynecologic cancer cell panel viability, ATPlite luminescence, 48 h; series mostly up to 57.5 µM
Method in brief: as §2

HeLa = assay: as above; conditions: Gynecologic cancer cell panel viability, ATPlite luminescence, 48 h; activity change, negative = cytotoxicity: at 57.5 µM (top of the series)
Method in brief: as §2

Hek293T = assay: as above; conditions: Gynecologic cancer cell panel viability, ATPlite luminescence, 48 h, control line for the selectivity index; activity change, negative = cytotoxicity: at 57.5 µM (top of the series) unless noted
Method in brief: as §2

JEG-3 = assay: as above; conditions: Gynecologic cancer cell panel viability, ATPlite luminescence, 48 h; series mostly up to 57.5 µM
Method in brief: as §2

PA-1 = assay: as above; conditions: Gynecologic cancer cell panel viability, ATPlite luminescence, 48 h; series mostly up to 57.5 µM
Method in brief: as §2

SKOV3 = assay: as above; conditions: Gynecologic cancer cell panel viability, ATPlite luminescence, 48 h; series mostly up to 57.5 µM
Method in brief: as §2

Tov-21-G = assay: as above; conditions: Gynecologic cancer cell panel viability, ATPlite luminescence, 48 h; activity change, negative = cytotoxicity: at 57.5 µM (top of the series) unless noted
Method in brief: as §2

Tov112D = assay: as above; conditions: Gynecologic cancer cell panel viability, ATPlite luminescence, 48 h; series mostly up to 57.5 µM
Method in brief: as §2

OV90 = assay: as above; conditions: Gynecologic cancer cell panel viability, ATPlite luminescence, 48 h; series mostly up to 57.5 µM
Method in brief: as §2
Potency is read from the fitted curve at half-maximal effect; tags tell the direction and shape of the fitted curve.

Structure (SMILES)	Potency [1]	Potency [2]	Potency [3]	Potency [4]	Potency (CRL-7250)	Potency (HaCat)	Potency (KB-3-1)	Potency (NIH3T3)	Potency (C33A)	Potency (CAOV3)	Potency (CASKI)	Potency (Es-2)	Potency (HeLa)	Potency (Hek293T)	Potency (JEG-3)	Potency (PA-1)	Potency (SKOV3)	Potency (Tov-21-G)	Potency (Tov112D)	Potency (OV90)
C=C1[C@@H](OC(C)=O)CC[C@@]2(C)[C@@H](OC(C)=O)[C@H](OC(C)=O)C3=C(C)C[C@H](OC(=O)C(C)CC)[C@@H]([C@@H](OC(C)=O)[C@H]12)C3(C)C (stereo not given in full)	inconclusive: 5.44 µM [inhibitor, single point]	inconclusive: 15.8 µM [inhibitor, partial curve]	active: 1.21 µM	active: 1.21 µM	inconclusive: 2.17 µM [inhibitor, partial curve]	active: 1.93 µM	active: 2.43 µM	active: 5.44 µM	inconclusive: 14.1 µM [cytotoxic, single point]	inconclusive: 3.16 µM [cytotoxic, partial curve, poor fit]	inconclusive: 11.2 µM [cytotoxic, single point]	inconclusive: 10 µM [cytotoxic, single point]	inconclusive: 10 µM [cytotoxic, single point]	inconclusive: 12.6 µM [cytotoxic, single point]	inconclusive: 8.91 µM [cytotoxic, single point]	inconclusive: 7.94 µM [cytotoxic, single point]	inconclusive: 7.94 µM [cytotoxic, single point]	inconclusive: 7.94 µM [cytotoxic, single point]	inconclusive: 12.6 µM [cytotoxic, single point]	
COc1cc2c(cc1O)CCC1C2CC[C@@]2(C)C1CC[C@@H]2O (stereo not given in full)	active: 1.32 µM				inconclusive: 7.43 µM [inhibitor, full curve]	inconclusive: 3.32 µM [inhibitor, full curve]	active: 3.32 µM	active: 4.18 µM												
CN1CCN(C2CCC(n3cc(-c4ccc(Oc5ccccc5)cc4)c4c(N)ncnc43)CC2)CC1 (stereo not given)		inactive			active: 5.8 µM	active: 1.03 µM	active: 20.6 µM	active: 0.326 µM	inconclusive: 15.8 µM [cytotoxic, partial curve, poor fit]	active: 28.2 µM	active: 15.8 µM	inconclusive: 28.2 µM [cytotoxic, single point]	active: 22.4 µM			active: 3.55 µM	active: 3.55 µM	inconclusive: 20 µM [cytotoxic, partial curve, poor fit]	inconclusive: 15.8 µM [cytotoxic, partial curve, poor fit]	
CC(=O)OC1[C@H]2[C@@H](C[C@@H](C)[C@@H]3C=CC(=O)[C@@]13C)OC(=O)[C@@H]2C (stereo not given in full)	inconclusive: 20.6 µM [inhibitor, single point]	inconclusive: 44.7 µM [inhibitor, partial curve]			inconclusive: 18.4 µM [inhibitor, single point]	inconclusive: 7.31 µM [inhibitor, partial curve, poor fit]	inconclusive: 29.1 µM [inhibitor, single point]	inconclusive: 20.6 µM [inhibitor, single point]	inconclusive: 17.8 µM [cytotoxic, partial curve]	inconclusive: 25.1 µM [cytotoxic, partial curve, poor fit]	inconclusive: 35.5 µM [cytotoxic, partial curve]	inconclusive: 25.1 µM [cytotoxic, single point]	inconclusive: 35.5 µM [cytotoxic, single point]	inconclusive: 31.6 µM [cytotoxic, partial curve, poor fit]	inconclusive: 28.2 µM [cytotoxic, single point]		inconclusive: 17.8 µM [cytotoxic, partial curve, poor fit]	inconclusive: 31.6 µM [cytotoxic, single point]	inconclusive: 22.4 µM [cytotoxic, partial curve, poor fit]	
OC1(c2ccc(Cl)c(C(F)(F)F)c2)CCN(CCCC(c2ccc(F)cc2)c2ccc(F)cc2)CC1				active: 4.73 µM and active: 4.59 µM	inconclusive: 33.5 µM [inhibitor, single point] and inconclusive: 29.1 µM [inhibitor, single point]	inconclusive: 23.1 µM [inhibitor, single point]	active: 23.1 µM and inconclusive: 20.6 µM [inhibitor, single point]	inconclusive: 29.9 µM [inhibitor, single point] and inconclusive: 18.4 µM [inhibitor, single point]	inconclusive: 39.8 µM [cytotoxic, single point]	inconclusive: 35.5 µM [cytotoxic, single point] and inconclusive: 31.6 µM [cytotoxic, single point]	inconclusive: 39.8 µM [cytotoxic, single point] and inconclusive: 28.2 µM [cytotoxic, single point]	active: 25.1 µM and inactive	active: 25.1 µM	inconclusive: 25.1 µM [cytotoxic, single point] and inconclusive: 39.8 µM [cytotoxic, partial curve, poor fit]	inconclusive: 31.6 µM [cytotoxic, single point] and inconclusive: 28.2 µM [cytotoxic, single point]	inconclusive: 39.8 µM [cytotoxic, single point] and inactive	inconclusive: 31.6 µM [cytotoxic, single point] and active: 25.1 µM	inconclusive: 35.5 µM [cytotoxic, single point]		active: 25.1 µM and active: 31.6 µM
